Measured values taken from PubChem BioAssay AID1956 (SRMLSC, 2009).
Among all 220,000 compounds or so, about 10 (0.005%) were called active. The shares of active, inactive and inconclusive entries below differ from those in the screen. Cut-off read from the data, not from the text of the source: active = maximum fold increase above about 1.5; inconclusive = no clear call, values can overlap the other calls; inactive = below that; tested in PC3 cells.

Experiment: compounds boosting herpes simplex virus growth – fold increase, host cell viability (AID 1956)
Details: HSV replication augmentation in cells; at 25 µM unless noted

| SMILES | maximum fold increase |
| --- | --- |
| Nc1nnc(SCC(=O)c2ccc3c(c2)NC(=O)CO3)s1 | inactive |
| CC(C)(C)c1nnc(SCC(=O)c2ccccc2)n(N)c1=O | inactive |
| FC(F)(F)c1cnc2c(c1)Nc1ccccc1S2 | inactive |
| COc1cc(/C=c2\sc3n(c2=O)C(c2ccccc2)C(c2ccccc2)=NN=3)ccc1O (stereo not given) | inconclusive |
| Cc1n[nH]c(C)c1N1C(=O)c2cccc3c(Br)ccc(c23)C1=O | inconclusive |
| CCCCOc1ccc(C2OC34CCCCC3C(C#N)(C#N)C2(C#N)C(=N)O4)cc1 (stereo not given) | inconclusive |
| COc1cccc(/C=N/Nc2nc3ccccc3n3cnnc23)c1O | inconclusive |
| COc1c(N2CCN(C(=S)NCc3ccccc3)C(C)C2)c(F)cc2c(=O)c(C(=O)O)cn(C3CC3)c12 (stereo not given) | inconclusive |
| CCN(CC)CCn1nc2c3c(cccc3c1=O)-c1ccccc1-2 | inactive |
| NC(=S)NN=C(Cc1ccccc1)Cc1ccccc1 | inconclusive |
| O=C(NCCc1ccccc1)c1nc2c(nnn2Cc2ccccc2Cl)c(=O)[nH]1 | inactive |
| CC(=O)OCCn1c2nc(=O)[nH]c(=O)c-2nc2cc(C)c(C)cc21 | inconclusive |
| O=C(NC(=S)Nc1ccc(F)cc1)c1ccc2c(c1)OCCO2 | inactive |
| COc1ccc(CNC(=S)Nc2cc(C)cc(C)c2)cc1 | inconclusive |
| O=C(O)c1ccc(N/N=C/C(Br)=C/c2ccccc2)cc1 | inactive |
| CC(=O)Oc1ccc(N(c2ccccc2)S(=O)(=O)c2ccc(C)cc2)cc1 | inactive |
| CCc1ccccc1NC1c2ccccc2C(=O)N1Cc1ccco1 (stereo not given) | inactive |
| Cc1cccc(OCCNc2nc3c(c(=O)n(C)c(=O)n3C)n2C)c1 | inactive |
| CCN(CC)c1ccc(C(=O)NC(=S)N2CCN(Cc3ccc4c(c3)OCO4)CC2)cc1 | inactive |
| O=C1c2ccccc2S(=O)(=O)N1CC(O)Cn1ccc2ccccc21 (stereo not given) | inconclusive |
| N#C/C(=C\c1ccc(O)cc1)c1nc2ccccc2o1 | inconclusive |
| CCCCN1C(=O)C(O)(CC(=O)c2c(C)n[nH]c2C)c2cc(Br)ccc21 (stereo not given) | inactive |
| NS(=O)(=O)c1cccc(NC(=O)CN2CCc3ccccc32)c1 | inconclusive |
| Nc1ccccc1C(=O)NCc1ccc(Cl)cc1 | inactive |
| O=[N+]([O-])c1ccc(N/N=C/c2ccc(OCc3cccc4ccccc34)cc2)nc1 | inconclusive |

| SMILES | maximum fold increase |
| --- | --- |
| COc1ccc(CNC(=O)C(c2ccco2)N(C(=O)Cc2cccs2)c2cccnc2)cc1 (stereo not given) | inconclusive |
| c1csc(C2Nc3cccc4cccc(c34)N2)c1 | inconclusive |
| Cc1cc2n(n1)C(c1ccccc1)CC(c1ccc(Br)cc1)=N2 (stereo not given) | inconclusive |
| N#CCSc1nc2c(c(=O)n1Cc1ccccc1)C1(CCCC1)Cc1ccccc1-2 | inconclusive |
| CCCN1C=CC(=CC=C(C#N)C#N)C=C1 | inconclusive |
| S=c1[nH]nc(COc2cccc(Cl)c2)n1Cc1ccccc1 | inactive |
| CC(=O)N1CCN(c2ccc(NC(=O)c3ccc(C(C)(C)C)cc3)cc2)CC1 | inactive |
| COc1ccc(N2CCN(C(=O)Cc3ccc(S(=O)(=O)N4CCOCC4)s3)CC2)cc1 | inconclusive |
| O=C(CN(Cc1ccc(Cl)c(Cl)c1)S(=O)(=O)c1ccccc1)N/N=C\c1ccc2c(c1)OCO2 | inactive |
| CC(=O)/C(C#N)=C1\NC(=O)C(Cc2ccc(C)c(Cl)c2)S1 (stereo not given) | inconclusive |
| Nc1nc(SCC(=O)Nc2ccccc2)nc2nc3c(cc12)CCCC3 | inconclusive |
| CCN(CC)S(=O)(=O)c1ccc2c(c1)nc(CCC(=O)OCC(=O)N1CCc3ccccc31)n2C | inconclusive |
| CN(C)/C=C(\C=O)c1ncc(C(F)(F)F)cc1Cl | inconclusive |
| C=CCn1c(=O)[nH]c2nc3cc(N=CN(C)C)c(C)cc3nc2c1=O | inconclusive |
| COc1ccc(NC(=O)Cn2c(=O)c(C)nc3ccccc32)cc1Cl | inconclusive |
| CC1=CC2=NC(=O)/C(=C/c3coc4ccccc4c3=O)C(=N)N2O1 | inconclusive |
| C/C(=N\NS(=O)(=O)c1ccccc1)c1ccc2c(c1)OCCO2 | inactive |
| CCCCCCn1c(=O)[nH]c2nc3cc(N)c(C)cc3nc2c1=O | inconclusive |
| CC(C)(Sc1cc(C(C)(C)C)c(O)c(C(C)(C)C)c1)Sc1cc(C(C)(C)C)c(O)c(C(C)(C)C)c1 | inactive |
| Cc1cc2oc3c(c(=O)c2cc1C)C(c1cccc(Br)c1)N(Cc1ccco1)C3=O (stereo not given) | inconclusive |
| Cc1ccc(COn2c(-c3ccc(Cl)cc3)nc3ccc([N+](=O)[O-])cc32)cc1 | inactive |
| O=c1c(O)c(-c2cccs2)oc2ccccc12 | inconclusive |
| O=C(Nc1cccnc1)c1cccs1 | inactive |
| CCCCC1OC23CCCCC2C(C#N)(C#N)C1(C#N)C(=N)O3 (stereo not given) | inconclusive |
| COc1ccc(OC2C(=O)N(CCc3ccc(OC)c(OC)c3)C2c2ccc3c(c2)OCO3)cc1 (stereo not given) | inconclusive |

| SMILES | maximum fold increase |
| --- | --- |
| Oc1c(C=Nc2ccc(Cl)cn2)sc2ccccc12 | inconclusive |
| CC(=O)Nc1ccc(NC2=Nc3ccccc3N3C2=Nc2c(c(C)nn2-c2ccccc2)C3c2ccccc2)cc1 (stereo not given) | inactive |
| O=c1c(N2CCOCC2)c(N2CCOCC2)c1=O | inactive |
| COc1ccc(-c2ccc3c(N)c(C(=O)c4cccc(OC)c4)sc3n2)cc1 | inconclusive |
| O=C(Nc1ccccc1C(=O)O)c1ccc(NC(=O)c2ccc(Br)o2)cc1 | inactive |
| Cc1ccccc1N1C(=O)c2cccc3c(N(C)CCO)ccc(c23)C1=O | inconclusive |
| COc1ccc(Cn2c(C)c(C)c(C#N)c2NC(=O)Nc2ccc(F)cc2)cc1 | inconclusive |
| CN(C=[N+](C)C)c1cccc2c1C(=O)c1ccccc1C2=O | inconclusive |
| NC(=S)n1[nH]c(-c2ccc([N+](=O)[O-])cc2)c(N=Nc2ccccc2[N+](=O)[O-])c1=O | inactive |
| O=C(Nc1cccc2nsnc12)c1ccc2c(c1)OCCO2 | inactive |
| COc1ccc(Nc2nc(C(C)(C)C)nc3c2nnn3Cc2ccccc2Cl)cc1OC | inconclusive |
| Nc1ccc2c3c(cccc13)CC2 | inconclusive |
| CCN(CC)C(=O)CSC(Nc1cccc(F)c1)=C(C#N)C#N | inconclusive |
| Cc1ccc(-c2cc(C(=O)N3CCCc4ccccc43)c3ccccc3n2)cc1 | inactive |
| COc1cc(/C=C2\OC(=O)c3c(OC)cccc32)ccc1O | inconclusive |
| CC(C)N1CCN(Cc2cccc(-c3ccco3)c2)CC1CCO (stereo not given) | inconclusive |
| C=CCN1C(=O)/C(=C\c2ccc(OC(=O)c3ccco3)c(OC)c2)SC1=S | inconclusive |
| CC(C)NC(=S)N/N=C/c1cccs1 | inconclusive |
| COc1ccc2c(c1)CCc1sc(NC(=O)c3ccc(C)cc3)nc1-2 | inconclusive |
| Cc1cccc(C(=O)NC(=S)N2CCN(C)CC2)c1 | inactive |
| C=CCN1C(=O)/C(=C/C(=O)OC)S/C1=N\NC(=O)c1ccccc1 | inconclusive |
| COC(=O)CCN(C(=O)c1ccc(C)c([N+](=O)[O-])c1)c1ccccn1 | inactive |
| O=[N+]([O-])c1ccc(C2=NN(c3ccccc3)C(c3ccco3)C2)cc1 (stereo not given) | inconclusive |
| COc1cc(-c2nnc(COc3ccc(Cl)cc3C)o2)cc(OC)c1OC | inconclusive |
| CCc1ccc2[nH]c(=O)c(CN(Cc3nnnn3C3CCCC3)C3CCCCC3)cc2c1 | inactive |

| SMILES | maximum fold increase |
| --- | --- |
| CCOC(=O)CN1C(=O)S/C(=C/c2ccc(N3CCCCC3)o2)C1=O | inconclusive |
| CN1Cc2sc(NC(=S)NC(=O)c3ccccc3)c(C#N)c2CC1(C)C | inconclusive |
| CCCOc1ccc(C(=O)NNC(=S)NC(=O)c2cc(-c3ccccc3)nc3ccccc23)cc1 | inconclusive |
| Cc1nn(Cc2ccccc2)c(C)c1C(=O)NCCN1C(=O)S/C(=C\c2ccccc2)C1=O | inactive |
| Cc1ccc(C2CC(c3cccs3)n3nc(N)nc3N2)cc1 (stereo not given) | inconclusive |
| CCOc1ccc(CN(C)CC(=O)NCc2ccccc2Cl)cc1 | inactive |
| O=C(c1ccccn1)N(Cc1ccco1)C1(C(=O)NC2CCCC2)CCCCC1 | inactive |
| C/C(=C\C=C(C#N)C#N)c1cc(C#N)c(N)o1 | inconclusive |
| COc1cc(/C=C2/NC(=O)N(Cc3ccccc3F)C2=O)cc(OC)c1O | inconclusive |
| COc1cccc(-c2nc(-c3ccc4c(c3)-c3ccccc3S4(=O)=O)c(-c3ccccc3)[nH]2)c1OC | inconclusive |
| CC1(C)SC(=S)N(c2ccccc2)C1/[N+]([O-])=C/c1cccc([N+](=O)[O-])c1 (stereo not given) | inconclusive |
| O=C(Nc1cccc(NC(=O)N2CCN(c3ccccc3)CC2)c1)N1CCN(c2ccccc2)CC1 | inconclusive |
| Cc1cccc2nc(COc3ccc(Cl)c4cccnc34)cn12 | inactive |
| Cc1ccc(-c2nnn(CC(=O)N(Cc3ccco3)C(C(=O)NC3CCCC3)c3cccs3)n2)o1 (stereo not given) | inconclusive |
| COc1cc(/C=C/C(=O)NCC(=O)N2CCC(N(C)CCN3CCOCC3)CC2)ccc1OC(C)C | inactive |
| CCC1=NN(C(=O)c2ccc(Br)cc2)C(O)(c2ccccc2)C1 (stereo not given) | inactive |
| Cc1ccc(CNC(=O)COc2ccc(C)nc2[N+](=O)[O-])cc1 | inactive |
| O=C1c2ccccc2C(=O)N1c1ccc(-c2nc3ccccc3o2)cc1 | inactive |
| Cc1ccc(NC(=S)NCc2ccc3c(c2)OCO3)c(C)c1 | inconclusive |
| CC(C)COc1ccc2[nH]c3c(c2c1)CCCC3=O | inconclusive |
| O=C(N/N=C/c1c(O)ccc2ccccc12)c1cccc(C(F)(F)F)c1 | inconclusive |
| Cc1c(C(=O)Nc2ccccc2)cn2c(nc3ccccc32)c1C#N | inactive |
| COc1cc(C(=O)Oc2ccccc2/C=N/NC(=O)c2ccc(Cl)cc2Cl)cc(OC)c1OC | inconclusive |
| CCOC(=O)c1[nH]c(CSc2nnnn2-c2ccccc2C)c(C(=O)OCC)c1C | inconclusive |
| CCOC(=O)c1sc(-n2[nH]c(C)cc2=O)nc1C | inconclusive |
